{"source": "PubChem BioAssay AID686970", "about": "(National Center for Advancing Translational Sciences (NCATS), 2013)", "note": "Out of some 360,000 compounds screened, about 6,000 (1.7%) were called active. This list was built around the results that the source calls inconclusive (neither active nor inactive); the mix of calls is not that of the screen. Calls follow the shape of the dose curve; as a rule, active = well fitted cell-killing curve with a large enough effect; inconclusive = small, poorly fitted or top-dose-only effect, or effect the other way; inactive = flat fitted curve, though single readings scatter. No potency is given beside an inconclusive call; the fits are too rough. Potency is read from the fitted curve at half-maximal effect; tags tell the direction and shape of the fitted curve."}
{"experiment": "qHTS for induction of synthetic lethality in tumor cells producing 2HG: qHTS for the HT-1080-NT fibrosarcoma cell line;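 also: NT is the 2HG producing partner of a matched IDH1 knockdown line; nearly all actives have a fitted effect of over 55% in size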;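 as to activity, negative = less viability: 0% = DMSO-treated cells and -100% = media-only wells without cells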", "conditions": "HT-1080-NT fibrosarcoma viability, CellTiter-Glo ATP luminescence, 48 h; activity, negative = less viability: at 46.1 µM (top of the series) unless noted", "method_in_brief": "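Compounds were tested in concentration-response format on HT-1080-NT cells for 48 hours at 37 degrees C. Cell viability came from CellTiter-Glo luminescence; curves were classified by r2, response magnitude and activity.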"}
{"smiles": "CCN(CC)C(=N)/C(C#N)=N/Nc1ccccc1", "activity, negative = less viability": "inconclusive: -1.23% [cytotoxic]"}
{"smiles": "COc1ccc(C(C)=O)cc1CC1(C)C(=O)Nc2ccc(-c3cccc(C(F)(F)F)c3)cc21", "note": "(configuration not stated)", "Potency": "inconclusive [cytotoxic, single point]"}
{"smiles": "Cc1cccc(C)c1NS(=O)(=O)c1c(C)[nH]c(=O)[nH]c1=O", "Potency": "inactive"}
{"smiles": "CS(=O)(=O)n1nc(OC(=O)c2cccs2)cc1N", "Potency": "inactive"}
{"smiles": "COc1ccccc1-c1ccc2c(c1)C(C)(Cc1cccc(F)c1)C(=O)N2", "note": "(configuration not stated)", "Potency": "inconclusive [cytotoxic, single point]"}
{"smiles": "CC(C(=O)NCC(=O)Nc1ccc(F)c(F)c1F)N1CCN(c2ccc(O)cc2)CC1", "note": "(configuration not stated)", "Potency": "inconclusive [cytotoxic, single point]"}
{"smiles": "Cc1c(C(O)CN2CCN(Cc3ccc4c(c3)OCO4)CC2)c2ccccc2n1C", "note": "(configuration not stated)", "Potency": "inconclusive [cytotoxic, single point]"}
{"smiles": "CCN1CCN(Cc2ccc(NC(=O)c3cc(NC(=O)c4cncc(-c5cccs5)c4)cc(OC)c3)cc2C(F)(F)F)CC1", "Potency": "inconclusive [cytotoxic, single point]"}
{"smiles": "Cc1cccc(C(=O)Nc2scc(-c3ccc(Br)cc3)c2C(=O)O)c1", "Potency": "inconclusive [cytotoxic, single point]"}
{"smiles": "COc1ccc2c(C)nc(Nc3nc(C)cc(C)n3)nc2c1", "Potency": "active: 0.447 µM"}
{"smiles": "COc1cc(OC)cc(C(=O)NC(=S)N2CCN(c3ccc(C(F)(F)F)cc3[N+](=O)[O-])CC2)c1", "activity, negative = less viability": "inconclusive: -14.9% [cytotoxic]"}
{"smiles": "Cc1onc(NC(=O)NC(=O)c2ccccc2F)c1Br", "Potency": "inactive"}
{"smiles": "CCCn1c(=O)c(C(=O)Nc2ccccc2N)c(O)c2ccccc21", "Potency": "inactive"}
{"smiles": "Cc1cccc(C)c1NC(=O)C(C)N1CCCCC1", "note": "(configuration not stated)", "Potency": "inactive"}
{"smiles": "CCCCN(Cc1cc2cc(OC)ccc2[nH]c1=O)S(=O)(=O)c1ccc(C)cc1", "activity, negative = less viability": "inconclusive: -31% [cytotoxic]"}
{"smiles": "CSc1nnc(C2CCN(CC(=O)Nc3ccccc3N3CCOCC3)CC2)n1C(C)C", "Potency": "inactive"}
{"smiles": "O=C(CN1CCN(S(=O)(=O)c2ccc(F)cc2)CC1)c1ccc(O)c(O)c1", "Potency": "inactive"}
{"smiles": "CC1CCCC(NC(=O)c2ccc(COc3ccccc3)o2)C1C", "note": "(configuration not stated)", "Potency": "inactive"}
{"smiles": "CC1(C)OC(=O)C2=C(C[C@@H](C3CCCCC3)O[C@@H]2c2ccc(F)cc2)O1", "Potency": "inactive"}
{"smiles": "C[C@@]12C(C[C@H](O)[C@@]34C[C@@H](CCC13)[C@@H](CO)C4=O)[C@](C)(C(=O)O)CC[C@@H]2O", "note": "(some centres not stated)", "Potency": "active: 29.1 µM"}
{"smiles": "N#Cc1ccccc1OCC(=O)Nc1nc(-c2ccccn2)cs1", "Potency": "inconclusive [cytotoxic, partial curve]"}
{"smiles": "CCOc1ccccc1NC(=O)CCn1cccc1", "Potency": "inactive"}
{"smiles": "C/C(=N\\N=C(/N)SC1CC(=O)N(c2ccc(Cl)c(Cl)c2)C1=O)c1cccs1", "note": "(configuration not stated)", "Potency": "inconclusive [cytotoxic, single point]"}
{"smiles": "COc1ccc(-n2c(COc3cccc4ccccc34)nnc2SCC#N)cc1", "Potency": "inconclusive [cytotoxic, single point]"}
{"smiles": "COc1cc(-c2nc3cnccn3c2Nc2ccccc2)ccc1O", "Potency": "inactive"}
{"smiles": "CS(=O)(=O)c1nc(-c2ccccc2)cc(-c2ccccc2)c1C#N", "Potency": "active: 23.1 µM"}
{"smiles": "O=C(Cn1nnc(-c2ccccc2)n1)N=Nc1c(O)[nH]c2ccccc12", "Potency": "inactive"}
{"smiles": "COc1ccc(-c2nc3ccccn3c2Cl)cc1", "Potency": "inconclusive [cytotoxic, partial curve, poor fit]"}
{"smiles": "COc1ccc(C(=O)NCCc2cc3ccc(C)c(C)c3[nH]c2=O)cc1OC", "Potency": "inactive"}
{"smiles": "CCOC(=O)NNC(=O)c1ccc(Cl)cc1", "Potency": "inconclusive [rising, partial curve]"}
{"smiles": "CCOC(=O)[C@@H]1[C@H]2COc3ccccc3[C@H]2N2C(=O)N(c3ccc(Cl)cc3)C(=O)[C@@]12C", "Potency": "inconclusive [cytotoxic, partial curve, poor fit]"}
{"smiles": "C[C@H](NC(=O)c1[nH]cnc1C(=O)Nc1ccc(CNC(=O)OC(C)(C)C)cc1)C(=O)OC(C)(C)C", "Potency": "inconclusive [cytotoxic, single point]"}
{"smiles": "O=C(CSc1nnc(CCCN2C(=O)c3cccc4cccc(c34)C2=O)n1-c1ccccc1)N1CCN(CCO)CC1", "Potency": "inactive"}
{"smiles": "NS(=O)(=O)c1ccc(CCNC(=O)c2ccc([N+](=O)[O-])s2)cc1", "Potency": "inconclusive [cytotoxic, single point]"}
{"smiles": "COc1ccc2c(c1)OC[C@H]1[C@H]2N2C(=O)c3ccc(F)cc3NC(=O)[C@@]2(C)[C@H]1c1ccccc1", "Potency": "inconclusive [cytotoxic, single point]"}
{"smiles": "Cc1cc(C)n(CC(=O)N2CCCC(N3CCN(c4ccc(F)cc4)CC3)C2)n1", "note": "(configuration not stated)", "Potency": "inactive"}
{"smiles": "COC(=O)[C@@]12C[C@@H](CC(=O)NCCc3ccccc3OC)C(=O)N(CCc3ccc(OC)c(OC)c3)C1=CCC(C)(C)C2", "Potency": "inconclusive [cytotoxic, single point]"}
{"smiles": "Cc1ccc(NC(=O)CN2CC(C)SC2=NC2CCCCC2)cc1", "note": "(configuration not stated)", "Potency": "inconclusive [cytotoxic, single point]"}
{"smiles": "COc1ccccc1-c1csc(C(C)(O)c2cccc(F)c2)n1", "note": "(configuration not stated)", "Potency": "inactive"}
{"smiles": "Cc1ccc2c(c1)C(c1ccccc1)N(C(=O)c1ccc(Br)o1)CC(=O)N2", "note": "(configuration not stated)", "Potency": "inconclusive [cytotoxic, partial curve]"}
{"smiles": "COc1ccc(NC(=O)c2ccc(=O)oc2)cc1", "Potency": "inconclusive [cytotoxic, single point]"}
{"smiles": "CC(C)c1nc2sc3c(=O)[nH]cnc3c2c2c1CCC2", "Potency": "inactive"}
{"smiles": "COc1cc2nc(NC3CCN(Cc4ccccc4)CC3)nc(N3CCCN(C)CC3)c2cc1OC", "Potency": "active: 6.31 µM"}
{"smiles": "Cc1cc2ccccc2n1CCNC(=O)Cc1cccc2ccccc12", "Potency": "inconclusive [cytotoxic, single point]"}
{"smiles": "CCN1C(=O)/C(=C\\N2CCN(C)CC2)SC1=S", "Potency": "inactive"}
{"smiles": "O=c1cc[nH]c2c(C(F)(F)F)cccc12", "Potency": "inactive"}
{"smiles": "O=C(N/N=C/c1cccc2nccnc12)c1ccccc1O", "Potency": "inconclusive [cytotoxic, partial curve]"}
